# Results as given in the supplement of paper PMC3334620.
# In all, about 33,000 sequences were measured (“E-score (-0.5 to 0.5)”: median about -0.054, highest 2% from about 0.39 on). The list shows a part of the results.
# Target: Ylr278c (UniProt Q05854)
# Test: PBM E-score (8-mer binding enrichment) (E-score (-0.5 to 0.5)); higher = stronger / more preferred TF binding; most listed sequences are background and not binding sites
# Conditions: protein concentration: 200 nM; construct: GST-DNA-binding domain
# Outline: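 E-scores (a modified Wilcoxon-Mann-Whitney statistic) were assigned by the Universal PBM Analysis Suite to every ungapped eight-base word pooled with its reverse complement. The input came from universal all-10-mer Agilent arrays made double-stranded by primer extension and probed with GST-tagged yeast transcription factors at about 100-200 nM. Fluorescent anti-GST detected bound protein, and masliner normalised the scans.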
row,Sequence,PBM E-score
1,AGCTGGAG,-0.255
2,ATGCGCCC,0.0972
3,ATCGTTTA,-0.21
4,CGTTGGGA,-0.111
5,TGAATAAA,-0.101
6,GACAGTAA,0.0296
7,ATGAAGGG,-0.189
8,CTACGGAG,0.398
9,GCCAGACC,-0.0137
10,AGGGCTTG,-0.285
11,CAAGCTAC,-0.146
12,CGGGATAG,0.211
13,CACCAATC,0.00689
14,ACGAGTCT,-0.252
15,CTGGCAGA,-0.137
16,CTACGTCA,-0.22
17,CACGTTAG,-0.316
18,GTCAACTA,-0.084
19,ACAGCGGT,0.105
20,GGCGTTAA,0.123
21,ATCACGGA,0.365
22,CCGTGTCG,0.256
23,ACAGAGCC,-0.14
24,ACTCGATA,-0.109
25,CATCGAAA,-0.126

row,Sequence,PBM E-score
1,AATGTCGG,0.249
2,CCCCTATA,-0.0889
3,AATACGCG,0.00014
4,TATCATCA,-0.0335
5,ATATTGGG,-0.00985
6,CCAAAGCG,0.13
7,CATGTCAA,-0.335
8,AGTTAACT,0.0572
9,GAATCAGC,-0.14
10,AATGACCC,-0.1
11,AGAGCGCG,0.104
12,ATCTCAAC,-0.00641
13,ACAGGGTG,-0.265
14,CCCTATTA,-0.126
15,CAGGCCAA,-0.16
16,AAGTCCCT,-0.213
17,TCCCCTCA,-0.034
18,GGAGAAGA,0.192
19,CTTTGCTA,-0.178
20,GCGTTTAC,0.0879
21,CGCCGTAA,0.28
22,AAACTCGA,-0.0721
23,CTGCTCGA,-0.203
24,ACCATATG,-0.271
25,TAGCCCCA,0.00983

row,Sequence,PBM E-score
1,CAGAAGAC,-0.205
2,CGCGTGCC,0.0926
3,AGGTCCAG,-0.113
4,CCCCCTCC,-0.0916
5,GTGAGGCA,-0.0777
6,CTAAGGAA,-0.113
7,ACACATGG,-0.187
8,ATGTGCCC,-0.0158
9,CCTGAGTC,-0.102
10,GAGAACGC,0.0273
11,GCTTAAAC,-0.156
12,CCGCATAG,0.247
13,CTCGCCAA,0.00031
14,ACCATGTA,-0.101
15,ATTTGGTG,-0.127
16,ATTCCGTA,0.33
17,ATCACCGG,0.325
18,CATTACTC,-0.0235
19,AGGAGCAG,-0.00465
20,GTAATGAA,-0.153
21,AAACCATT,-0.217
22,GCTCACGA,-0.286
23,GATTGTCC,0.223
24,CCGCCGGA,0.462
25,AACCAAGC,-0.08

row,Sequence,PBM E-score
1,ATGCGTGA,-0.111
2,ATGCTGTC,-0.157
3,ACAGTTAC,-0.0401
4,AACCACGC,-0.137
5,CTATGGTA,-0.0832
6,ACAATATC,-0.0104
7,CGGTCGGA,0.385
8,CGCGTACA,-0.0824
9,AGTGCGTC,-0.101
10,GACCATAA,-0.23
11,TAAAGGAA,-0.152
12,CGTAGACC,-0.13
13,AGCGTTCG,-0.199
14,ATAGGGCG,0.0869
15,ATAAGCCA,-0.297
16,ACAGGTGG,-0.17
17,CGCCCACA,0.0294
18,AAGGTAGC,-0.275
19,CCTGCACG,-0.232
20,ATGCTACA,-0.284
21,CTATTGAC,-0.116
22,CGTAAGAA,0.0411
23,AGAGCTGC,-0.0659
24,AGTATAGC,-0.122
25,GATAATCC,0.315

row,Sequence,PBM E-score
1,GCCCCGCC,0.292
2,CCTTCATA,-0.029
3,ACTAACGA,-0.183
4,CGTCGTGA,-0.0274
5,AGGGGACT,-0.134
6,GTGCGCAA,0.0414
7,ACCTTTGG,-0.219
8,GAGTTAGC,0.0106
9,TCCCTCGA,-0.0806
10,CGAACGCG,0.117
11,GCAACTAA,0.0955
12,CGTTTCGC,0.0401
13,CAAGAAGC,-0.0334
14,AGGCCTCA,-0.18
15,AGTAAACA,0.0332
16,GTCGTCTA,-0.0115
17,CCCCGGAC,0.388
18,CACCCGGA,0.365
19,CTTACAGC,-0.265
20,CCACTCAG,-0.239
21,CAACGGAG,0.368
22,CTTACTAC,-0.064
23,ATCGCCCC,-0.0218
24,GGAGGGAC,0.0906
25,CAGGACTG,-0.287

row,Sequence,PBM E-score
1,ATTTTTGG,-0.0911
2,ACTAGTGC,-0.0271
3,ACACTAAC,0.0293
4,CACACCCA,-0.107
5,CGATAGAC,-0.0741
6,GTCTCCAA,-0.111
7,CCGACGTA,0.284
8,GTACTAAA,-0.061
9,CCTCCTAC,-0.0963
10,ACGCACCC,-0.0749
11,CTCTGTAC,-0.193
12,ATCAGAAT,-0.0859
13,CTACGTTC,-0.177
14,AGCCCGCC,0.228
15,GAACGCTC,-0.135
16,AGCAATCA,-0.118
17,ATATGACC,-0.0965
18,CTTCATGA,-0.0816
19,CAGCATGG,-0.0297
20,GAAATACC,0.228
21,GAAGCCCC,0.194
22,AGGCAGGG,-0.137
23,AGGAGAGG,-0.329
24,CAGCGAGC,-0.0547
25,ATAGGAAT,-0.133

row,Sequence,PBM E-score
1,ACGCGGAG,0.421
2,CGGTCCCC,0.216
3,GACCAGAC,-0.18
4,AGGAGATA,-0.016
5,GGGCCGTA,0.0879
6,CGTCTTAG,-0.145
7,ATAGCAGG,0.0173
8,AACTCAGG,-0.143
9,CGCTGTAG,-0.0629
10,CGCCTTGC,-0.0411
11,TGACGTAA,-0.185
12,AGGATTTG,-0.171
13,AATAATTC,0.171
14,ATCCCTGC,-0.115
15,ACCCAGAA,-0.176
16,AAATTAGG,0.129
17,AGGACTAC,-0.16
18,AAGAGTCC,0.0347
19,ATTTAGGA,-0.183
20,CAGGCACC,-0.174
21,GCCTCTGA,-0.256
22,ATAATGAA,-0.0289
